In the supplement of paper PMC8728848:
This is one part of the list.

Experiments:
Experiment in all cases: glycan array binding signal (z-score within array); higher = stronger binding
Details in all cases: glycan notation: IUPAC condensed, linker removed
[1] = molecular target: GlcNAc(b1-4)GlcNAc(b1-4)GlcNAc(b1-4)GlcNAc(b1-4)GlcNAc
How it was run: (§1)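 The binding signal is a Z-score computed within each array. Data were drawn from 3228 arrays in the Consortium for Functional Glycomics database, restricted to those with a known protein sequence. Scores were averaged over arrays of the same protein sequence at different concentrations or buffers, and over linkers, and negative values can be taken as non-binding.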

[2] = molecular target: GlcNAc(b1-4)GlcNAc(b1-4)GlcNAc(b1-4)GlcNAc(b1-4)GlcNAc(b1-4)GlcNAc
How it was run: as §1

[3] = molecular target: GlcNAc(b1-4)[GlcNAc(b1-6)]GalNAc
How it was run: as §1

[4] = molecular target: GlcNAc(b1-6)Gal(b1-4)GlcNAc
How it was run: as §1

[5] = molecular target: GlcNAc(b1-6)GalNAc
How it was run: as §1

[6] = molecular target: GlcNAc6S(b1-3)Gal(b1-4)GlcNAc
How it was run: as §1

[7] = molecular target: Kdn(a2-3)Gal(b1-3)GalNAc
How it was run: as §1

[8] = molecular target: Kdn(a2-3)Gal(b1-3)GlcNAc
How it was run: as §1

[9] = molecular target: Kdn(a2-3)Gal(b1-4)Glc
How it was run: as §1

[10] = molecular target: Kdn(a2-3)Gal(b1-4)GlcNAc
How it was run: as §1

[11] = molecular target: Kdn(a2-3)Gal(b1-4)[Fuc(a1-3)]GlcNAc
How it was run: as §1

[12] = molecular target: Kdn(a2-6)Gal(b1-4)GlcNAc
How it was run: as §1

[13] = molecular target: Man(a1-2)Man(a1-2)Man(a1-3)Man
How it was run: as §1

[14] = molecular target: Man(a1-2)Man(a1-2)Man(a1-6)[Man(a1-3)]Man
How it was run: as §1

[15] = molecular target: Man(a1-2)Man(a1-3)Man
How it was run: as §1

[16] = molecular target: Man(a1-2)Man(a1-3)[Man(a1-2)Man(a1-6)]Man
How it was run: as §1

[17] = molecular target: Man(a1-2)Man(a1-3)[Man(a1-2)Man(a1-6)]Man(a1-6)[Man(a1-2)Man(a1-2)Man(a1-3)]Man
How it was run: as §1

[18] = molecular target: Man(a1-2)Man(a1-3)[Man(a1-2)Man(a1-6)]Man(a1-6)[Man(a1-2)Man(a1-2)Man(a1-3)]Man(b1-4)GlcNAc(b1-4)GlcNAc
How it was run: as §1

[19] = molecular target: Man(a1-2)Man(a1-3)[Man(a1-6)]Man(a1-6)[Man(a1-2)Man(a1-3)]Man(b1-4)GlcNAc(b1-4)GlcNAc
How it was run: as §1

[20] = molecular target: Man(a1-2)Man(a1-6)[Man(a1-3)]Man(a1-6)[Man(a1-2)Man(a1-2)Man(a1-3)]Man
How it was run: as §1

[21] = molecular target: Man(a1-2)Man(a1-6)[Man(a1-3)]Man(a1-6)[Man(a1-2)Man(a1-2)Man(a1-3)]Man(b1-4)GlcNAc(b1-4)GlcNAc
How it was run: as §1

[22] = molecular target: Man(a1-3)[Man(a1-6)]Man
How it was run: as §1

[23] = molecular target: Man(a1-3)[Man(a1-6)]Man(a1-6)[Man(a1-2)Man(a1-3)]Man(b1-4)GlcNAc(b1-4)GlcNAc
How it was run: as §1

[24] = molecular target: Man(a1-3)[Man(a1-6)]Man(a1-6)[Man(a1-3)]Man
How it was run: as §1

[25] = molecular target: Man(a1-3)[Man(a1-6)]Man(a1-6)[Man(a1-3)]Man(b1-4)GlcNAc(b1-4)GlcNAc
How it was run: as §1

[26] = molecular target: Man(a1-3)[Man(a1-6)]Man(b1-4)GlcNAc(b1-4)GlcNAc
How it was run: as §1

[27] = molecular target: Man(a1-3)[Man(a1-6)]Man(b1-4)GlcNAc(b1-4)[Fuc(a1-6)]GlcNAc
How it was run: as §1

[28] = molecular target: Man(a1-6)Man
How it was run: as §1

[29] = molecular target: Man(b1-4)GlcNAc
How it was run: as §1

[30] = molecular target: MurNAc(b1-4)GlcNAc
How it was run: as §1

[31] = molecular target: Neu5Ac(a2-3)Gal
How it was run: as §1

[32] = molecular target: Neu5Ac(a2-3)Gal(b1-3)GalNAc
How it was run: as §1

[33] = molecular target: Neu5Ac(a2-3)Gal(b1-3)GalNAc(b1-3)Gal(a1-4)Gal(b1-4)Glc
How it was run: as §1

[34] = molecular target: Neu5Ac(a2-3)Gal(b1-3)GalNAc(b1-4)Gal(b1-4)Glc
How it was run: as §1

[35] = molecular target: Neu5Ac(a2-3)Gal(b1-3)GalNAc(b1-4)[Neu5Ac(a2-3)]Gal(b1-4)Glc
How it was run: as §1

[36] = molecular target: Neu5Ac(a2-3)Gal(b1-3)GalNAc(b1-4)[Neu5Ac(a2-8)Neu5Ac(a2-3)]Gal(b1-4)Glc
How it was run: as §1

[37] = molecular target: Neu5Ac(a2-3)Gal(b1-3)GalNAc6S
How it was run: as §1

B1: DC-ASGPR-short (Homo sapiens) (protein)
chain: MTRTYENFQYLENKVKVQGFKNGPLPLQSLLQRLRSGPCHLLLSLGLGLLLLVIICVVGFQNSKFQRDLVTLRTDFSNFTSNTVAEIQALTSQGSSLEETIASLKAEVEGFKQERQAVHSEMLLRVQQLVQDLKKLTCQVATLNNNASTEGTCCPVNWVEHQDSCYWFSHSGMSWAEAEKYCQLKNAHLVVINSREEQNFVQKYLGSAYTWMGLSDPEGAWKWVDGTDYATGFQNWKPGQPDDWQGHGLGGGEDCAHFHPDGRWNDDVCQRPYHWVCEAGLGQTSQESH
Q: Which results are given for B1?
A: glycan array binding signal (z-score) [1]: -0.269; glycan array binding signal (z-score) [2]: -0.251; glycan array binding signal (z-score) [3]: -0.277; glycan array binding signal (z-score) [4]: -0.261; glycan array binding signal (z-score) [5]: 4.64; glycan array binding signal (z-score) [6]: -0.27; glycan array binding signal (z-score) [7]: -0.244; glycan array binding signal (z-score) [8]: -0.255; glycan array binding signal (z-score) [9]: -0.182; glycan array binding signal (z-score) [10]: -0.272; glycan array binding signal (z-score) [11]: -0.278; glycan array binding signal (z-score) [12]: -0.173; glycan array binding signal (z-score) [13]: -0.287; glycan array binding signal (z-score) [14]: -0.27; glycan array binding signal (z-score) [15]: -0.283; glycan array binding signal (z-score) [16]: -0.283; glycan array binding signal (z-score) [17]: -0.286; glycan array binding signal (z-score) [18]: -0.277; glycan array binding signal (z-score) [19]: -0.286; glycan array binding signal (z-score) [20]: -0.287; glycan array binding signal (z-score) [21]: -0.271; glycan array binding signal (z-score) [22]: -0.273; glycan array binding signal (z-score) [23]: -0.215; glycan array binding signal (z-score) [24]: -0.286; glycan array binding signal (z-score) [25]: -0.271; glycan array binding signal (z-score) [26]: -0.307; glycan array binding signal (z-score) [27]: -0.269; glycan array binding signal (z-score) [28]: -0.273; glycan array binding signal (z-score) [29]: -0.27; glycan array binding signal (z-score) [30]: -0.291; glycan array binding signal (z-score) [31]: -0.283; glycan array binding signal (z-score) [32]: -0.235; glycan array binding signal (z-score) [33]: -0.277; glycan array binding signal (z-score) [34]: -0.281; glycan array binding signal (z-score) [35]: -0.283; glycan array binding signal (z-score) [36]: -0.231; glycan array binding signal (z-score) [37]: -0.279
